{"source": "ChEMBL document CHEMBL1157539", "about": "“Thousands of chemical starting points for antimalarial lead identification” (Nature, 2010)", "note": "Over roughly 13,000 compounds, “IFI” has its median near 4; the highest 2% begin near 17. Some of the results follow.", "data": [{"assay": "GSK_TCMDC: Inhibition Frequency Index (IFI). The number of non-kinase HTS assays where a compound showed > 50 % inhibition, expressed as a percentage of the number of such assays in which the compound was tested (-0 is zero)", "format": "functional", "units": {"IFI": "%"}, "values": [{"smiles": "CN1CCN(c2ccnc3ccc(NC(=O)Nc4ccc(Br)cc4)cc23)CC1", "IFI": 2.94}, {"smiles": "c1ccc(CN2CCN(c3cc(-c4cncc(-c5ccccc5)c4)nc(-c4ccccc4)n3)CC2)cc1", "IFI": 0}, {"smiles": "CS(=O)(=O)c1ccc(CCNCc2ccc(-c3ccc(CN(C(=O)c4cccc(C#N)c4)C4CCN(Cc5ccccc5)CC4)cc3)nc2)cc1", "IFI": 5.56}, {"smiles": "Cc1ccccc1CNC(=O)Nc1cccc(-c2csc(NC(=N)N)n2)c1", "IFI": 3.76}, {"smiles": "CCn1c(-c2nonc2N)nc2c(-c3ccc(CO)o3)ncc(OCCCN)c21", "IFI": 15.4}, {"smiles": "CNC(=O)NC1=NC(C)(C)N(OCCCOc2cc(Cl)c(Cl)cc2Cl)C(N)=N1", "IFI": 0}, {"smiles": "CCc1c(C)c(C#N)c2nc3ccccc3n2c1NCc1ccco1", "IFI": 1.8}, {"smiles": "COc1ccc2nccc([C@@H](O)CN3CCC(NC(=O)CCC(=O)c4cc(C(C)(C)C)ccc4OC)CC3)c2c1", "IFI": 10.3}, {"smiles": "COc1cc(NC(=O)c2nn(CCCN3CCC(N4CCCC4)CC3)cc2-c2ccc(Cl)c(Cl)c2)cc(OC)c1OC", "IFI": 10.9}, {"smiles": "Cc1cc(Cl)ccc1NC(=O)Nc1ccc2nccc(N3CCN(C)CC3)c2c1", "IFI": 2.14}, {"smiles": "CC1(C)CCCN(Cc2c(O)ccc3c(O)c(-c4nc5ccccc5s4)c(=N)oc23)C1", "IFI": 0.73}, {"smiles": "CCOc1cc(C(=O)NC2CC(C)(C)NC(C)(C)C2)ccc1-c1nc2cc(Cl)ccc2[nH]1", "IFI": 2.05}, {"smiles": "COC(=O)CCn1c(C2CCN(CC3CCC(NC(=O)/C=C/c4ccc(Cl)c(Cl)c4)CC3)CC2)nc2ccccc21", "note": "(stereo not drawn)", "IFI": 3.03}, {"smiles": "CC(C)CCN1CCCN(Cc2ccc(C(=O)Nc3ccc(F)c(F)c3)cc2)CC1", "IFI": 7.14}, {"smiles": "Cc1cc(=O)c(-c2ccc(Oc3ccc(Cl)cc3Cl)cc2)c(C)[nH]1", "IFI": 2.88}, {"smiles": "CCCc1cc(=O)oc2cc(OC)c(C(=O)CC(C)C)c(OC)c12", "IFI": 0.81}, {"smiles": "COc1ccc(CCNC(=O)c2ccc(-n3cc(NC(=O)c4cccnc4)cn3)cc2)cc1OC", "IFI": 9.76}, {"smiles": "FC(F)(F)Oc1cccc(CNc2noc(-c3sccc3Br)n2)c1", "IFI": 10.6}, {"smiles": "Cc1cccc2nc(-c3ccc(-c4cccc(CN5CCCC5CN)c4)s3)[nH]c12", "note": "(stereo not drawn)", "IFI": 7.92}, {"smiles": "Cc1[nH]c2ccc(-c3ccccc3)cc2c(=O)c1Br", "IFI": 0.88}, {"smiles": "CCC[C@@H]([C@@H](CC1CCCCC1)C(=O)NC(C(=O)Nc1nccs1)C(CC)c1ccccc1)N(O)C=O", "note": "(stereo partly drawn)", "IFI": 6.02}, {"smiles": "Cc1cc(Nc2ccc(C)c(C)c2)n2nc(C)nc2n1", "IFI": 0}, {"smiles": "CCC(C)C(COC(=O)c1cc(OC)c(OC)c(OC)c1)N(C)CCN(C)C(COC(=O)c1cc(OC)c(OC)c(OC)c1)C(C)CC", "note": "(stereo not drawn)", "IFI": 1.48}, {"smiles": "CN(C)CCCOc1ccc(CN2CC[C@H](NC(=O)c3ccc(Cl)c(Cl)c3)C2)cc1Br", "IFI": 10.3}, {"smiles": "COc1cc2nc(NCC3CCN(c4nc(N)c5cc(OC)c(OC)cc5n4)CC3)nc(N)c2cc1OC", "IFI": 7.96}, {"smiles": "Cc1c(NCCCNCc2cc(Cl)cc(Cl)c2Cl)[nH]c2ccccc2c1=O", "IFI": 8.53}, {"smiles": "Cc1cc(NC(=O)NCCN2CCC(NC(=O)c3cccc(Br)c3)C2)c2ccccc2n1", "note": "(stereo not drawn)", "IFI": 0.84}, {"smiles": "N=C1C=C(N)C(=O)c2ccccc21", "IFI": 20.8}, {"smiles": "C=CCc1cccc(CN2CCC(c3cc(O)nc(-c4ccccn4)n3)CC2)c1O", "IFI": 11.8}, {"smiles": "O=C(c1ccccc1)N1COCC(CCN2CCC(N3CCCC3)CC2)(c2ccc(Cl)c(Cl)c2)C1", "note": "(stereo not drawn)", "IFI": 0}, {"smiles": "O=C(O)CNCC(O)c1ccccc1", "note": "(stereo not drawn)", "IFI": -0}, {"smiles": "CC(=O)Nc1ccc(C(=O)N2CCN(c3ccnc4cc(Cl)ccc34)CC2)cc1", "IFI": -0}, {"smiles": "CC1(C)N=C(N)N=C(N)N1c1ccc(Oc2ccc(Cl)cc2)c(Cl)c1", "IFI": 3.45}, {"smiles": "Cc1c(C)n(Cc2ccccc2)c2ncnc(OC3CCN(CC(=O)NCC4CC4)CC3)c12", "IFI": 11.9}, {"smiles": "COc1cc2nc(C)nc(Nc3ccc(Cc4ccccc4)cc3)c2cc1OC", "IFI": 6.35}, {"smiles": "Cc1cccc(Nc2nc(N)c3ccccc3n2)c1", "IFI": 2.82}, {"smiles": "O=C(c1csc(-c2cccnc2)n1)N1CCc2cc3nccc(N4CCN5CCC[C@H]5C4)c3cc21", "IFI": 1.49}, {"smiles": "CNS(=O)(=O)c1ccc(NC(=O)c2cc(-c3cccnc3)nc3ccc(Br)cc23)cc1", "IFI": 2.86}, {"smiles": "C=C[C@]1(C)C[C@@H](OC(=O)CNC[C@@H](O)CN2C[C@H](c3ccnc4ccc(OC)nc34)OC2=O)[C@@]2(C)[C@@H]3C(=O)CC[C@@]3(CC[C@@H]2C)[C@@H](C)[C@@H]1O", "IFI": 1.56}, {"smiles": "CCNc1cc(C)nc(Nc2ccc(NC(=O)c3ccccc3Cl)cc2)n1", "IFI": 11.3}, {"smiles": "N=C(N)NC(=O)Nc1cc(Cl)c(Cl)c(C(F)(F)F)c1", "IFI": 5.22}, {"smiles": "Cc1noc(C)c1C(=O)N1CCCC(c2[nH]c3c(C)cccc3c2-c2ccncc2)C1", "note": "(stereo not drawn)", "IFI": 2.27}, {"smiles": "COc1ccc(CNCc2ccc(-c3cccc(-c4nc5ccccc5[nH]4)c3)cc2)cc1", "IFI": 9.17}, {"smiles": "Oc1ccc(CCCNc2nc(NCc3cccc4ccccc34)nc(NC3CCNCC3)n2)cc1", "IFI": 10.8}, {"smiles": "O=C(Nc1ccc(Cn2ncc(N3CCCNCC3)c(Cl)c2=O)cc1)Nc1cccc(C(F)(F)F)c1", "IFI": 7.35}, {"smiles": "Nc1nc(NCC2CCC(CNS(=O)(=O)c3cccc4ccccc34)CC2)nc2ccccc12", "note": "(stereo not drawn)", "IFI": 6.67}, {"smiles": "Nc1nc(N)c(-c2ccccc2)c(=O)[nH]1", "IFI": 2.29}, {"smiles": "NC(=O)c1c(Cl)nc2ccccc2c1Cl", "IFI": 1.45}, {"smiles": "COc1ccc(/N=C(\\N)Nc2ccccc2)nc1Cc1ccccc1", "IFI": 30.2}, {"smiles": "Cc1nc(C)c(-c2ccc(Oc3ccc(Cl)cc3)cc2)c(O)c1I", "IFI": 0.76}, {"smiles": "Cc1cc(F)ccc1[C@H]1C[C@H](N2CCOCC2)CCN1C(=O)N(C)[C@@H](C)c1cc(C(F)(F)F)cc(C(F)(F)F)c1", "IFI": 5.66}, {"smiles": "COc1ccc(CNC(=O)NC2CCN(c3ccnc(Nc4ccc(OC)cc4)n3)C2)cc1", "note": "(stereo not drawn)", "IFI": 4.62}, {"smiles": "COc1cc2c(cc1C(F)(F)F)N(C(=O)Nc1cc(OC(F)(F)F)cc(-c3cccnc3)c1)CC2", "IFI": 3.91}, {"smiles": "O=C(/C=C/c1ccc(C(F)(F)F)cc1)N1CCC(CCN2CCC(c3c[nH]c4ccccc34)CC2)CC1", "IFI": 7.86}, {"smiles": "Cc1cccc2nc(-c3ccc(-c4cccc(CN5CCCCC5)c4)s3)[nH]c12", "IFI": -0}, {"smiles": "Cc1nn(-c2ccccc2)nc1C(=O)N(Cc1ccc(-c2ccc(CNCCc3ccc(S(C)(=O)=O)cc3)cn2)cc1)C1CC1", "IFI": 5.56}, {"smiles": "CN(C)c1ccc(C2c3[nH]cnc3CCN2C(=O)Nc2cccc([N+](=O)[O-])c2)cc1", "note": "(stereo not drawn)", "IFI": 12.2}, {"smiles": "CN1CCC(NCc2ccc(-c3ccc(C(F)(F)F)cc3)cc2)CC1", "IFI": 5.15}]}]}
